From the antibiotic and cytotoxicity screens of Wong et al. (2023)
The other results are listed elsewhere or left out.

What was measured:
S. aureus RN4220 = assay: growth inhibition call (relative growth <= 0.2); settings: 50 µM
HSkMC = human skeletal muscle cells; assay: cytotoxicity call (relative viability < 0.9); settings: 10 µM
HepG2 = assay: cytotoxicity call (relative viability < 0.9); settings: 10 µM

| Compound | growth inhibition call (S. aureus RN4220) | cytotoxicity call (HSkMC) | cytotoxicity call (HepG2) |
| --- | --- | --- | --- |
| CC(=O)OC1CC2C(C)(C)C(O)CCC2(C)C2CCC3(C)C(=CC(=O)OC3c3ccoc3)C12C (stereo not drawn) [3beta-HYDROXYDEOXODIHYDRODEOXYGEDUNIN] | inactive |  |  |
| CCC(CCC(C)C1CCC2C3CC=C4CC(O)CCC4(C)C3CCC12C)C(C)C (stereo not drawn) [beta-SITOSTEROL ] |  | inactive | inactive |
| COc1cc2c(cc1OC)C1C(=O)c3c(O)cc4c(c3OC1CO2)C=CC(C)(C)O4 (stereo not drawn) [alpha-TOXICAROL (dl)] | inactive |  |  |
| O=C(C[C@@H]1CC[C@@H]2[C@H](COC[C@@H](O)CN2S(=O)(=O)c2ccc(Oc3ccccc3)cc2)O1)NCCN1CCCCC1 | inactive | inactive | inactive |
| NC(=O)[C@@H]1CC[C@@H]2CN1C(=O)N2OS(=O)(=O)O | inactive | inactive | inactive |
| NC(C(=O)O)C(O)C(=O)O (stereo not drawn) [d,l-threo-3-HYDROXYASPARTIC ACID ] |  | inactive | inactive |
| C=C1CCC=C(C)CCC2C1CC2(C)C.O (single isomer, unassigned; (-)) [(-)E-CARYOPHYLLENE hydrate] | inactive |  |  |
| NC(C(=O)O)C(O)C(=O)O (stereo not drawn) [d,l-threo-3-HYDROXYASPARTIC ACID] | inactive |  |  |
| C[C@@H]1CCCCO[C@@H](CN(C)S(=O)(=O)c2ccccc2)[C@H](C)CN([C@H](C)CO)C(=O)c2cc(NS(=O)(=O)c3cn(C)cn3)ccc2O1 | inactive | inactive | inactive |
| C=C1CCC=C(C)CCC2C1CC2(C)C.O (single isomer, unassigned; (-)) [(-)E-CARYOPHYLLENE hydrate ] |  | inactive | inactive |
| CC(=O)OC1CCC2(C)C(CCC3C4CC=C(C(C)=O)C4(C)CCC32)C1 (stereo not drawn) [3-beta-ACETOXYALLOPREG-16-EN-20-ONE ] |  | inactive | inactive |
| CC(=O)OC1CCC2(C)C(CC(OC(C)=O)C3(C)C2CCC2(C)C(c4ccoc4)OC(=O)C4OC423)C1(C)C (stereo not drawn) [3beta-ACETOXYDEOXODIHYDROGEDUNIN ] |  | inactive | inactive |
| NC1C(OC2C(C(=O)[O-])OC(COC3C(CO)OC(O)C(O)C3O)C(OS(=O)(=O)[O-])C2O)OC(COS(=O)(=O)[O-])C(O)C1O (configuration not stated) | inactive | inactive | inactive |
| CC(C)CC(NC(=O)C(C)NC(=O)CNC(=O)C(NC=O)C(C)C)C(=O)NC(C)C(=O)NC(C(=O)NC(C(=O)NC(C(=O)NC(Cc1c[nH]c2ccccc12)C(=O)NC(CC(C)C)C(=O)NC(Cc1c[nH]c2ccccc12)C(=O)NC(CC(C)C)C(=O)NC(Cc1c[nH]c2ccccc12)C(=O)NC(CC(C)C)C(=O)NC(Cc1c[nH]c2ccccc12)C(=O)NCCO)C(C)C)C(C)C)C(C)C (configuration not stated) [GRAMICIDIN (gramicidin A shown) ] |  | active | active |
| CC(=O)OC1CCC2(C)C(CCC3C4CC=C(C(C)=O)C4(C)CCC32)C1 (stereo not drawn) [3-beta-ACETOXYALLOPREG-16-EN-20-ONE] | inactive |  |  |
| CCC(CCC(C)C1CCC2C3CC=C4CC(O)CCC4(C)C3CCC12C)C(C)C (stereo not drawn) [beta-SITOSTEROL] | inactive |  |  |
| C[C@H](CO)N1C[C@H](C)[C@H](CN(C)Cc2ccc(C(=O)Nc3ccccc3N)cc2)Oc2ccc(NC(=O)NC3CCCCC3)cc2C1=O | inactive | inactive | inactive |
| CC(=O)OC1CC2C(C)(C)C(O)CCC2(C)C2CCC3(C)C(=CC(=O)OC3c3ccoc3)C12C (stereo not drawn) [3beta-HYDROXYDEOXODIHYDRODEOXYGEDUNIN ] |  | inactive | inactive |
| C=C1C2CCC3(C)C(c4ccoc4)OC(=O)CC13OC1CC(O)C(C)(C)C(CC(=O)OC)C12C (stereo not drawn) [3alpha-HYDROXY-3-DEOXYANGOLENSIC ACID METHYL ESTER ] |  | inactive | inactive |
| NC(Cc1cc(I)c(Oc2ccc(O)c(I)c2)c(I)c1)C(=O)[O-].[Na+] [LIOTHYRONINE (L- isomer) SODIUM ] |  | inactive | active |
| Oc1ccc2ccccc2c1 [beta-NAPHTHOL ] |  | inactive | active |
| COc1cc2c(cc1OC)C1C(=O)c3c(O)cc4c(c3OC1CO2)C=CC(C)(C)O4 (stereo not drawn) [alpha-TOXICAROL (dl) ] |  | inactive | active |
| CC(=O)OC1CCC2(C)C(CC(OC(C)=O)C3(C)C2CCC2(C)C(c4ccoc4)OC(=O)C4OC423)C1(C)C (stereo not drawn) [3beta-ACETOXYDEOXODIHYDROGEDUNIN] | inactive |  |  |
| C[C@@H]1CCCCO[C@H](CN(C)S(=O)(=O)c2ccccc2)[C@@H](C)CN([C@H](C)CO)C(=O)c2cc(NS(C)(=O)=O)ccc2O1 | inactive | inactive | inactive |
